Source: paper PMC4336329 (PLoS ONE, 2015)
Screen size: about 310,000 compounds; about 14,000 (4.5%) showed an effect of 50% or more. Effects have a minus sign here. The list shows a part of the results.

Biological target: human ether-à-go-go-related gene (hERG) potassium channel (human, UniProt Q12809)
Assay: primary screen, population patch clamp on CHO cells stably expressing hERG
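Note: peak tail current of the secondary pulse compared with the same well before compound.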

Sequence of human ether-à-go-go-related gene (hERG) potassium channel (Q12809 whole entry, looked up): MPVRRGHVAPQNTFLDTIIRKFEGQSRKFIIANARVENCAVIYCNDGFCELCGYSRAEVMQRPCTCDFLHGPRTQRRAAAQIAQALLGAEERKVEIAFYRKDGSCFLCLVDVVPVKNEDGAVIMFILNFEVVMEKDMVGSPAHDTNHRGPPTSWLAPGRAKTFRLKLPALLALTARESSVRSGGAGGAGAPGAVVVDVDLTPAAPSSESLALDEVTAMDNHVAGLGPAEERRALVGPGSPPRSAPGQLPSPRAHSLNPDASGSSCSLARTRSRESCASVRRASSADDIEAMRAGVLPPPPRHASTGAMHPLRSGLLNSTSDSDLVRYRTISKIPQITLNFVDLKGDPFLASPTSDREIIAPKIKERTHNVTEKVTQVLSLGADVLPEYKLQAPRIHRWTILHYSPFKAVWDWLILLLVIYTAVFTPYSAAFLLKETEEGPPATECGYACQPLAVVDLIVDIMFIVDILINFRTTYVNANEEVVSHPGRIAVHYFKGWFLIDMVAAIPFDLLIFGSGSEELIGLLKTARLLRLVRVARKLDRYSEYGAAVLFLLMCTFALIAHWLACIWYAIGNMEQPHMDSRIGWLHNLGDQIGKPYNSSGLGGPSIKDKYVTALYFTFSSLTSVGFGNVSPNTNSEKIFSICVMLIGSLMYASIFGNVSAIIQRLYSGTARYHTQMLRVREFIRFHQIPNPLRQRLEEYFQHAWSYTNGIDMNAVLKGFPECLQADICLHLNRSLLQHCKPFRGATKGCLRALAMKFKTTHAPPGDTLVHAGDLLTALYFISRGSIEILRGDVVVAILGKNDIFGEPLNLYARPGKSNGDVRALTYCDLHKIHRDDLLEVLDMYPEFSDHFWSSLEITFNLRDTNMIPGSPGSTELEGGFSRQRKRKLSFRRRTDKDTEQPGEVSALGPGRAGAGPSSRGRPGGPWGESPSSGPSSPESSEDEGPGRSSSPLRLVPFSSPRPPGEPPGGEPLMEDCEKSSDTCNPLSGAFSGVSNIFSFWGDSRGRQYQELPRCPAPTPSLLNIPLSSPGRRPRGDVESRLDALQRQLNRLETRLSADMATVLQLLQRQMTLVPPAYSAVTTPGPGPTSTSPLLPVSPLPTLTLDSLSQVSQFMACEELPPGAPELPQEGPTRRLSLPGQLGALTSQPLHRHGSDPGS

Structure (SMILES)	hERG current change (%, negative = inhibition) at 10uM [%]
COc1ccccc1C(=O)NNC(=O)C1CCN(C(=O)OC(C)(C)C)CC1	8.53
CCOC(=O)C1=C(C)N(CCO)C(=O)NC1c1ccccc1 (stereo not shown)	-12.2
CSc1nnc2c3c4c(sc3c(=O)n(-c3ccccc3)n12)CC(C)(C)OC4	2.89
Cc1cc(/C=C2\C(=N)N3N=C(C(C)C)SC3=NC2=O)c(C)n1Cc1ccccc1	-0.943
Cc1ccc(CC(=O)NC2CCN(Cc3ccccc3)CC2)cc1	-12.7
Cc1ccc(S(=O)(=O)NCCSc2nnnn2-c2ccc(C(N)=O)cc2)cc1	3.61
COc1cc(C(=O)N2CC(C)OC(C)C2)c([N+](=O)[O-])cc1OC (stereo not shown)	4.79
CCOC(=O)N1CCN(c2ccc([N+](=O)[O-])cc2)CC1	-59.4
CNCCCN1c2ccccc2CCc2ccccc21.Cl	-2.73
Cc1cc2cccc(C)c2nc1SCC(=O)NC1CCCCC1	3.5
O=C(O)c1cc([N+](=O)[O-])c(NCc2cccnc2)c([N+](=O)[O-])c1	9.52
FC(F)(F)c1cccc(NC(=S)N2CCN(c3ccccc3)CC2)c1	10.1
Cc1ccc(S(=O)(=O)N2CCC(C(N)=O)CC2)cc1[N+](=O)[O-]	0.751
O=C(NC1CC(=O)N(c2ccccc2)C1)N1CCN(C(=O)c2ccco2)CC1 (stereo not shown)	-5.77
CCCCCNCC(=O)Nc1cc(C(F)(F)F)ccc1OCCOC	-34.2
CC(=O)c1cc2c(cc1NC(=O)CSc1nnc(C)s1)OCO2	5.69
CCOC(=O)CNC(=O)CSc1nc(-c2cccc(C)c2)ns1	4.44
O=C(NCc1ccccc1)Oc1cccc(Cl)c1	11.3
CCOC(=O)NN1C(=O)c2ccccc2NC1c1ccccc1 (stereo not shown)	-6.67
COc1ccccc1COn1c(=O)c(-c2ccco2)[n+]([O-])c2ccccc21	5.96
O=C(Cn1nnc(-c2ccccc2F)n1)Nc1ccc2c(c1)OCO2	16.6
Cc1ccc(S(=O)(=O)Nc2csc(C)c2C(=O)O)cc1	21.7
O=C(NCCCNC(=O)c1ccc(Cl)cc1Cl)c1cnccn1	-0.517

Structure (SMILES)	hERG current change (%, negative = inhibition) at 10uM [%]
Cc1nn(-c2ccccc2)c2sc(C(=O)N(CC(=O)NC(C)(C)C)Cc3ccco3)cc12	-21.3
S=C(NCCCc1ccccc1)NC1CCCCC1	-4.79
Fc1cccc(F)c1-n1c(CN2CCCC2)csc1=S	-2.37
CC(=O)c1ccc(N2CCN(S(=O)(=O)c3cccc4nonc34)CC2)cc1	0.735
COC(=O)C1=C(c2ccc(C(C)=O)cc2)C[C@@H]2CC[C@H]1N2C(=O)N1CCC(O)CC1	9.89
O=P(OC1CCS(=O)(=O)C1)(c1ccccc1)c1ccccc1 (stereo not shown)	11.2
CC(CCn1cccn1)NC(=O)c1cc(COc2ccc(F)cc2F)on1 (stereo not shown)	-19.5
O=C(O)C1CC1(c1ccccc1)c1ccccc1 (stereo not shown)	17.7
Cc1ccc(C(=O)NCC(=O)NCC(=O)OCC(=O)c2ccc(F)cc2)cc1	-4.81
CCc1n[nH]c(=S)n1N=C1CCC(C)CC1 (stereo not shown)	19.1
CC(Sc1nc2ccccc2c(=O)n1C)C(=O)N(C)C1CCCCC1 (stereo not shown)	-37.4
CC1CCN(CCC(=O)Nc2ccccc2)CC1	-10.1
O=c1c2c3c(sc2nc2n1CCCC2)CCCC3	-7.19
Cc1ccc(S(=O)(=O)N2CCOCC2)cc1C(=O)NCc1cccnc1	17.5
O=c1cc(NCc2ccccc2)c2ccccc2o1	-5.54
COc1cc(/C=C/c2nnc3c4ccccc4ncn23)cc(OC)c1OC	-16.2
O=C1CCCN1CCCNc1nc2c(S(=O)(=O)c3ccc(Br)cc3)nnn2c2ccccc12	9.4
Cc1ccc(C(=O)NCC2CCCO2)cc1[N+](=O)[O-] (stereo not shown)	4.29
CCN(CC)CCCN(Cc1cc2cc(OC)c(OC)cc2[nH]c1=O)C(=O)Nc1ccccc1	-13.8
CC(C)N=c1cc2n(-c3ccc(Cl)cc3)c3ccccc3nc-2cc1Nc1ccc(Cl)cc1	35.9
Cc1ccc(-c2c(C)n([O-])c3c([n+]2=O)CCCC3)cc1	51.9
COc1ccc(C(C)NCCC(c2ccc(OC(C)C)cc2)c2ccccc2OC)cc1 (stereo not shown)	-64.2
CCN(C(=O)CO/N=C/c1ccc(OC)cc1OC)c1c(N)n(Cc2ccccc2)c(=O)[nH]c1=O	-0.661
